# Laboratory results as given in the supplement of paper PMC3334620.
# Whole data set: some 33,000 sequences, median “E-score (-0.5 to 0.5)” near -0.032, cut for the highest 2% near 0.36. Some of the results follow.
# Target: T1, Sko1 (UniProt Q02100)
# T1 sequence: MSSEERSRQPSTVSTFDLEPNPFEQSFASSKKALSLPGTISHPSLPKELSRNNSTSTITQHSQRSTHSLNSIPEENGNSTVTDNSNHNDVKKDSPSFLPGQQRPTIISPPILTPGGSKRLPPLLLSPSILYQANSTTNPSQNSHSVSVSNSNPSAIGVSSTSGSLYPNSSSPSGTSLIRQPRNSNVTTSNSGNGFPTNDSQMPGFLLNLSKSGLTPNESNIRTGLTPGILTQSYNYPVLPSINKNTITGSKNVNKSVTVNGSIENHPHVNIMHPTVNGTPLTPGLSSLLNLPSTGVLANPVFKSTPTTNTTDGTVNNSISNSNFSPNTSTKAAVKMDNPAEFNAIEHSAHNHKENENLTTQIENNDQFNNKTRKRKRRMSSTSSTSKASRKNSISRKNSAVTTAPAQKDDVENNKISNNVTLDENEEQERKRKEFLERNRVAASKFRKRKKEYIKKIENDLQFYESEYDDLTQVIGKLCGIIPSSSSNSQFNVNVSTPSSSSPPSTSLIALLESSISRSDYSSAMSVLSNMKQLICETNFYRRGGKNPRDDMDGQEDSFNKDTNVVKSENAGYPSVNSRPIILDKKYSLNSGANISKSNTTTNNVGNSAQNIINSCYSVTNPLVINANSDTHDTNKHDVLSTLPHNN
# Test: PBM E-score (8-mer binding enrichment) (E-score (-0.5 to 0.5)); higher = stronger / more preferred TF binding; most listed sequences are background and not binding sites
# Settings: protein concentration: 200 nM; construct: GST-full length
# Description: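 Universal 'all 10-mer' protein binding microarrays (Agilent AMADID 015681) probed with GST-tagged S. cerevisiae TFs (full-length or DBD) made by in vitro transcription/translation (PURExpress), about 100-200 nM. Bound TF was detected with fluorescent anti-GST. Each ungapped 8-mer (which stands for itself and its reverse complement) is scored by the PBM enrichment score (E-score), a modified Wilcoxon-Mann-Whitney statistic from -0.5 to +0.5, computed with the Universal PBM Analysis Suite. Scale: above 0.35 generally sequence-specific binding.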
row,Sequence,PBM E-score
1,GGTTATGA,0.0964
2,GGTGATCA,0.0126
3,CAGGCTCA,-0.118
4,GGCTAAGA,-0.101
5,AGCGCCGG,-0.204
6,AACCAGTT,0.102
7,ACGGAGTA,-0.0183
8,AGACATTG,-0.167
9,TACTGAAA,0.219
10,GCCCCGAC,-0.125
11,CGTACACC,0.146
12,AAAGGGCT,-0.354
13,ACGCGCGT,0.269
14,AGCCTCGG,-0.231
15,AGATGTCA,0.189
16,ACGTACAC,0.444
17,TATTATAA,0.181
18,CCAAAACG,0.171
19,CCACAGGA,-0.0523
20,AAGAGCCC,-0.168
21,TACACCAA,0.0162
22,TCGCAGAA,-0.0347
23,AGGCCACT,-0.16
24,AATAGTCT,0.0372

row,Sequence,PBM E-score
1,ACAGTTTC,0.0429
2,TACCAAGA,0.0282
3,ATGTCGGC,-0.12
4,GCAGTTGA,-0.111
5,CCCCAGCA,-0.157
6,AACTGCCC,-0.282
7,CACCCGAC,-0.0908
8,CTGGCGTC,0.0837
9,ATTCCCTA,-0.019
10,CCTTTTCA,-0.107
11,AAGCGCCA,-0.249
12,AGTCCAAA,-0.14
13,ACTTCAAT,0.064
14,ATTGTTGC,0.236
15,AGCTACTC,-0.182
16,GCTACATA,0.0142
17,CCACGACC,-0.0564
18,AGCCACTA,-0.198
19,CGGTCATC,-0.0713
20,CACATTAC,0.354
21,AAAATGGG,-0.146
22,AGCTCGGC,-0.0932
23,CACTATAG,-0.00316
24,GAGAAGGA,-0.155

row,Sequence,PBM E-score
1,ATATCCTA,0.0515
2,ACGTGCGG,0.308
3,CTCTTCTA,-0.00289
4,GGATTTAC,0.237
5,CCCCACGG,-0.22
6,GAATCTCA,-0.195
7,GAAGGTAA,0.0069
8,CTCAGATC,-0.148
9,ACGCCGTC,0.192
10,ACTAATGC,0.0674
11,AAGAACTG,-0.141
12,AGCCTGAT,0.025
13,ATACGCAC,0.389
14,ATCGTCCA,-0.0889
15,GGCGTCGA,0.0241
16,CCGACCTC,-0.312
17,TGTGGGAA,-0.00802
18,CTCAGACA,-0.0764
19,AATCATTG,0.11
20,CTTTAGAC,0.0705
21,GTCTATTA,0.0729
22,CGTGGTTC,0.0129
23,CACCCGTG,-0.293
24,AATTCCCC,-0.198

row,Sequence,PBM E-score
1,TCCTGTCA,-0.0412
2,CTAGGAAG,-0.133
3,ACTGCCCC,-0.306
4,AAGTTCGC,0.152
5,AAGTACAT,0.237
6,GGAATGAA,0.0115
7,TCAGTAGA,0.075
8,AGGCCTAG,-0.108
9,AACCCTAT,0.0535
10,AGTTCAAA,0.0351
11,CAGAATAA,0.2
12,ATAAATAG,0.163
13,CTGCAGAC,-0.19
14,GCATTATA,0.00078
15,GCTCAATA,-0.0186
16,CCAGATAC,0.0297
17,GGTGCGAC,-0.126
18,CAATCTAC,-0.0423
19,CTGAGTAC,-0.0323
20,GCTCGGCA,-0.196
21,CGTCTAAA,-0.0104
22,CCGGCATA,-0.155
